# Measurements as given in the supplement of paper PMC8728848.
# The other results are listed elsewhere or left out.
# Columns and labels:
# Assay in all cases: glycan array binding signal (z-score within array); higher = stronger binding
# Conditions in all cases: glycan notation: IUPAC condensed, linker removed
# [1] = target: Gal(b1-4)GlcNAc(b1-3)Gal(b1-4)GlcNAc(b1-3)[Gal(b1-4)GlcNAc(b1-3)Gal(b1-4)GlcNAc(b1-6)]GalNAc
# How it was run: (§1)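 Negative Z-scores can be read as non-binding. The Z-score is calculated within each array and then averaged across arrays of one protein sequence at different concentrations or buffers and across linkers. Arrays, 3228 in all, were curated from the Consortium for Functional Glycomics database and kept only where the protein sequence was available.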
# [2] = target: Gal(b1-4)GlcNAc(b1-3)Gal(b1-4)GlcNAc(b1-6)[Gal(b1-3)]GalNAc
# How it was run: as §1
# [3] = target: Gal(b1-4)GlcNAc(b1-3)Gal(b1-4)[Fuc(a1-3)]GlcNAc(b1-3)Gal(b1-4)[Fuc(a1-3)]GlcNAc
# How it was run: as §1
# [4] = target: Gal(b1-4)GlcNAc(b1-3)GalNAc
# How it was run: as §1
# [5] = target: Gal(b1-4)GlcNAc(b1-3)[Fuc(a1-3)GlcNAc(b1-6)]Gal(b1-4)Glc
# How it was run: as §1
# [6] = target: Gal(b1-4)GlcNAc(b1-3)[Gal(b1-4)GlcNAc(b1-6)]Gal(b1-4)GlcNAc
# How it was run: as §1
# [7] = target: Gal(b1-4)GlcNAc(b1-3)[GlcNAc(b1-6)]Gal(b1-4)GlcNAc
# How it was run: as §1
# [8] = target: Gal(b1-4)GlcNAc(b1-6)Gal(b1-4)GlcNAc
# How it was run: as §1
# [9] = target: Gal(b1-4)GlcNAc(b1-6)GalNAc
# How it was run: as §1
# [10] = target: Gal(b1-4)GlcNAc(b1-6)[Gal(b1-3)]GalNAc
# How it was run: as §1
# [11] = target: Gal(b1-4)GlcNAc(b1-6)[Gal(b1-4)GlcNAc(b1-3)]GalNAc
# How it was run: as §1
# Gal(b1-4)GlcNAc6P = target: Gal(b1-4)GlcNAc6P
# How it was run: as §1
# Gal(b1-6)Gal = target: Gal(b1-6)Gal
# How it was run: as §1
# Gal3S(b1-3)GalNAc = target: Gal3S(b1-3)GalNAc
# How it was run: as §1
# Gal3S(b1-3)GlcNAc = target: Gal3S(b1-3)GlcNAc
# How it was run: as §1
# [12] = target: Gal3S(b1-3)[Fuc(a1-4)]GlcNAc
# How it was run: as §1
# Gal3S(b1-4)Glc = target: Gal3S(b1-4)Glc
# How it was run: as §1
# Gal3S(b1-4)Glc6S = target: Gal3S(b1-4)Glc6S
# How it was run: as §1
# Gal3S(b1-4)GlcNAc = target: Gal3S(b1-4)GlcNAc
# How it was run: as §1
# [13] = target: Gal3S(b1-4)[Fuc(a1-3)]Glc6S
# How it was run: as §1
# [14] = target: Gal3S(b1-4)[Fuc(a1-3)]GlcNAc
# How it was run: as §1
# [15] = target: Gal3S(b1-4)[Fuc(a1-3)]GlcNAc6S
# How it was run: as §1
# Gal3S4S(b1-4)GlcNAc = target: Gal3S4S(b1-4)GlcNAc
# How it was run: as §1
# Gal3S6S(b1-4)GlcNAc = target: Gal3S6S(b1-4)GlcNAc
# How it was run: as §1
# Gal3S6S(b1-4)GlcNAc6S = target: Gal3S6S(b1-4)GlcNAc6S
# How it was run: as §1
# Gal4S(b1-4)GlcNAc = target: Gal4S(b1-4)GlcNAc
# How it was run: as §1
# Gal4S6S(b1-4)GlcNAc = target: Gal4S6S(b1-4)GlcNAc
# How it was run: as §1
# Gal6P(b1-4)GlcNAc = target: Gal6P(b1-4)GlcNAc
# How it was run: as §1
# Gal6S(b1-3)GlcNAc = target: Gal6S(b1-3)GlcNAc
# How it was run: as §1
# Gal6S(b1-3)GlcNAc6S = target: Gal6S(b1-3)GlcNAc6S
# How it was run: as §1
# Gal6S(b1-4)Glc = target: Gal6S(b1-4)Glc
# How it was run: as §1
# Gal6S(b1-4)Glc6S = target: Gal6S(b1-4)Glc6S
# How it was run: as §1
# Gal6S(b1-4)GlcNAc = target: Gal6S(b1-4)GlcNAc
# How it was run: as §1
# Gal6S(b1-4)GlcNAc6S = target: Gal6S(b1-4)GlcNAc6S
# How it was run: as §1
# GalNAc(a1-3)Gal = target: GalNAc(a1-3)Gal
# How it was run: as §1
# GalNAc(a1-3)GalNAc = target: GalNAc(a1-3)GalNAc
# How it was run: as §1
# [16] = target: GalNAc(a1-3)GalNAc(b1-3)Gal(a1-4)Gal(b1-4)Glc
# How it was run: as §1
binder,measurement,setting,value
"AT5G01260(PC)(40) (Arabidopsis thaliana), Q9LFB0 (protein) MIGIGRTLTSSSPSKIILEDLPPGIYRYGTEIFTSVPRKTFHHIKFLRLDSAQSSRILKPVPLRSSSIKDSQVNVEDEEIEASNKTVRVRFQLRKECVFGEHFFIVGDDPVFGGLWDPETALPLNWSDGNVWTVDLDLPVGRLVEFKLLLKAQTGEILWQPGPNRALETWETNKTIRICEDWDNADLQMMIEEDFVPYTNISSIGSEDEDEVLGSVQQNSSVVAVENAGYVSDESAQNSSFSIQSEKTMEPSNGALTAREVIKEAMFTEEESPVLVPGLIPLSDLDNEQVEVINEGKAETFPEVDKKQEPKAERNKKAKVKAISLFEKSEQEAVKSVEQRQYNAVEEEQQRLETEPLGTPDVLFENDIQWGRRTLYKLLSNFRLF",glycan array binding signal (z-score),[1],-0.184
same,glycan array binding signal (z-score),[2],0.462
same,glycan array binding signal (z-score),[3],-0.623
same,glycan array binding signal (z-score),[4],-0.184
same,glycan array binding signal (z-score),[5],-0.229
same,glycan array binding signal (z-score),[6],0.104
same,glycan array binding signal (z-score),[7],-0.442
same,glycan array binding signal (z-score),[8],-0.598
same,glycan array binding signal (z-score),[9],0.07
same,glycan array binding signal (z-score),[10],-0.341
same,glycan array binding signal (z-score),[11],-0.088
same,glycan array binding signal (z-score),Gal(b1-4)GlcNAc6P,0.092
same,glycan array binding signal (z-score),Gal(b1-6)Gal,-0.292
same,glycan array binding signal (z-score),Gal3S(b1-3)GalNAc,0.582
same,glycan array binding signal (z-score),Gal3S(b1-3)GlcNAc,0.245
same,glycan array binding signal (z-score),[12],0.473
same,glycan array binding signal (z-score),Gal3S(b1-4)Glc,-0.346
same,glycan array binding signal (z-score),Gal3S(b1-4)Glc6S,0.724
same,glycan array binding signal (z-score),Gal3S(b1-4)GlcNAc,-0.288
same,glycan array binding signal (z-score),[13],4.34
same,glycan array binding signal (z-score),[14],-0.128
same,glycan array binding signal (z-score),[15],0.239
same,glycan array binding signal (z-score),Gal3S4S(b1-4)GlcNAc,-1.04
same,glycan array binding signal (z-score),Gal3S6S(b1-4)GlcNAc,0.154
same,glycan array binding signal (z-score),Gal3S6S(b1-4)GlcNAc6S,1.1
same,glycan array binding signal (z-score),Gal4S(b1-4)GlcNAc,-0.245
same,glycan array binding signal (z-score),Gal4S6S(b1-4)GlcNAc,-0.174
same,glycan array binding signal (z-score),Gal6P(b1-4)GlcNAc,0.002
same,glycan array binding signal (z-score),Gal6S(b1-3)GlcNAc,-0.089
same,glycan array binding signal (z-score),Gal6S(b1-3)GlcNAc6S,-0.529
same,glycan array binding signal (z-score),Gal6S(b1-4)Glc,-0.226
same,glycan array binding signal (z-score),Gal6S(b1-4)Glc6S,-0.658
same,glycan array binding signal (z-score),Gal6S(b1-4)GlcNAc,-0.814
same,glycan array binding signal (z-score),Gal6S(b1-4)GlcNAc6S,0.388
same,glycan array binding signal (z-score),GalNAc(a1-3)Gal,0.854
same,glycan array binding signal (z-score),GalNAc(a1-3)GalNAc,-0.448
same,glycan array binding signal (z-score),[16],-0.513
